Experimental data as given in the supplement of paper PMC10681739.
In all, about 4,000 sequences were measured (“arbitrary fluorescence units”: median about 830, highest 2% from about 6,500 on). Most of the strongest results are missing from this list.

The sequences below were run against RUNX1 (UniProt Q01196) (assay: RUNX1 binding intensity (PBM fluorescence), RUNX1 alone (arbitrary fluorescence units); higher = stronger binding). Details: RUNX1 concentration 2 nM; ETS1 concentration 0 nM.
Method: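 gcPBM on 36-bp genomic-derived probes (partner site mutated) containing one RUNX1 site and no ETS1 site. Recombinant human RUNX1 (2 nM) was incubated alone or with ETS1 (25 nM) and detected by anti-RUNX1 antibody fluorescence. Values are medians over 4 replicate spots (not normalised). The probes sit in constant array flanks that are not printed.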
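Also: Full-length recombinant human RUNX1 bound to double-stranded DNA microarray spots, detected with an Alexa488-labelled secondary antibody after the anti-RUNX1 primary, read as scanned spot fluorescence.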

UniProt Q01196, sequence (Q01196 whole entry): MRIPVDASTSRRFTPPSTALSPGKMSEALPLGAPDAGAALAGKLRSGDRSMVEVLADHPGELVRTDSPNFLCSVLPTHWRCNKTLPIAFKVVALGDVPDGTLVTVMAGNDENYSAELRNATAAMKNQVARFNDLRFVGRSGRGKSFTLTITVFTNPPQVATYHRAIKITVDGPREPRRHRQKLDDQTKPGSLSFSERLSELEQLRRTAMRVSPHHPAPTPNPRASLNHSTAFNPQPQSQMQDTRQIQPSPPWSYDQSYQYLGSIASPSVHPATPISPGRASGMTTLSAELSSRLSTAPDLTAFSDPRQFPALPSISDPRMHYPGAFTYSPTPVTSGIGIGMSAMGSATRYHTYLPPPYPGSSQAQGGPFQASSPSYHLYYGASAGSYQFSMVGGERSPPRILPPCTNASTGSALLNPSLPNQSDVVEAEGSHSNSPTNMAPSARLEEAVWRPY

Sequence	RUNX1 binding intensity
CATAGGCAGTGCTCAGCTCTCCTCCACCGCAAGTTT	829
CTAGAGACGCGGTAGAAAGGTTCAGCCCGCTCCCTG	767
GCCACATATTTGCTGTGACAACCCTGTGGTGTGGCT	773
AACTTAGCTTACGGCAAGAAGGCGAGCGGTGGGAGG	816
CGCCTGCCCCACTTTCGCCCGGACCCGCAGCCCCTA	1300
GACATCCAGCAAGTGGTGAGAAACCACGTGTGTGTT	855
GAAAACACAGAAAGCCGTCCGCGCAACCGCGTTGCA	700
TGTCCGGGCAGCAAGGGGTGCTCTGTGGGCTTGGAG	691
GTCGCTGTGGTTGCCTGAAACAGCAAATCCTTCTGC	879
CTGGAAACCACCTCTCGCTCCAGTTCCCAGCACCCC	1260
TGCAACGCGGTTGCGCGGACGGCTTTCTGTGTTTTC	785
TCTCCTTTCAGGGAGCTGCACCCAAACCACCCTCAG	861
CCTGCCCTGCGTGGTTTTGTCACTTGCTGCTCAGAG	1020
GTTGCAAAGGCGCCCACAACTACTTTCGCTTCTAGT	821
CTCCAGGGACCACAGCGGGAGAGGCAATAGCCACCA	847
ACCTAATGGCCACAATGGAGAACTGCAGGGTGTAGA	761
GCAAACACACCACAGACTGCAGACCCGAAAGAACTT	1020
ATCGGCAACCAGTGAGCTCATTAGAAACCGCTTATC	803
TGACTAAGATCGGAAGAAACCACAAAAACACAAAAA	2220
GGAGGAACAACCACTGGTTGTCCACGTTCCAGTCGT	680
CAAACCACCTAATTAGGATAATGGAGAGGCAGCCCA	738
TCAGCTGCGGGATGAGTCAGTGCGAGCAGGGAGCAC	748
TCTCACCCCGCAAAGACTCCACCCTTGCTGGCCCTT	1110
TCGGACCAGAACGGAGCAGAGTCGTGCGTGGTTGCT	745
AACACTACACAGCCTCTCTTGTTGTGGCTGCTGAAC	797
GGCAACCCAAGGACGTATCTCTGAAACCACACAACA	1060
TACGCAGCCCACAAGCCCGACAGCATGTCATGAATA	769

Sequence	RUNX1 binding intensity
TTATCGGAACTGCGGGTTGGGCAGGGAGCAGCATGA	810
GCCACTCCCGGTCACTCCCCGCTGCGGCCTCGCGCT	1180
TGTGTAATCCCCACCACAACCTAGGAGGTGGGAAAA	731
AGCGCCACACCTCCGCTTTGCGGCAGTGTGCGCCCC	790
GACTATGTGCTTCAGGTCTCCAATACCGCAGGAGGG	892
AACGTCATTCCCGAGAGCCTGAAGCAGCCGCAGGCC	915
GCAGGGACCGGGAGTCCATGGCTCTGCCGCAACCCT	680
TCCGCGGCCCGCAGGAACGCCAGCAAGCCTAGGCCG	688
ACAAGGAGACATTCAGAGGTTTTTGAGGTCAGGATT	785
GGGCGGGTCAGCGCAAGTGAGGGCGGTTGAGGCTGG	716
GGGGCCTCACCGCAGGTTCCACCTCCTTTCTGGGTA	1740
AGCTTTTCTGAGACCGCGGGCAGGAGGTGACCTCCC	912
CCACACTGCCCCGCAAGGCGTTGCCGGGTTTTGAGG	798
AGCTTTCTGTTTGGCCTTGCTGATGTCACCGCATTA	880
TTGAAAACCACGACTCCTGACACAGTAGTTCCACCT	1080
ACCCGACCCACAAGCGACCCTGCATGAAGGGCTGGG	863
CTGGAGCCGTCAGGGTCTGGCCCCTGCGGCCGCGCA	737
ACGACCGCAGGGGAAAGCAAGCCGGCCAGATGAGAA	766
CTCTAGAGGCTCCCTGCCCAACCACCAAGAAAAAGC	915
AGCTGCGGGAACCCCAGTGAGAGTGTGATTGCCTCT	698
ACCCTCAGCTGCGGCTACAGACACTGCCTAGAATCT	934
CTAGCCACCGCGGCCCCACCCTCTTACGGCCTCAGC	1030
TTTGCGGGCGATTCCCTCTCAGGACTCCCGGACAGG	849
AAACAGCAAATCACAGCAGCGTTGCGGAGTGGAGCA	714
ACAAGGACTGCCGCCTCCCTGCGGTCCCTCCCCTAC	920
GCACATGAAAAGCTGCTTTCCGCGTGGTAAATTCAA	757
TCGGGTTCTGCCAGCTTGCACCGCCCCGCAAGGTCG	698

Sequence	RUNX1 binding intensity
GCTTCGATTCCCGCCGGGGCTCACCGCGCCCCCCTA	978
GGGGCAGCAAGTGGAGGTTTGAAGTGGTTTAGAGTA	782
CAGCGGTCATCATGGTGAAGGAGCAGTTCAGGGAGA	802
GAGTCACCAACCACCGCCATGGGCCGTAAGCCACCG	838
GACAAAGCTGCGGCAGGAGGGACGTTTCTGCACTGG	794
AACCCCTTGCACCGCGGACACAGCTTCTTCTTCCCC	1080
GCCAGGCGGCCGCAGATCCCCAGAACATACGGGAGC	935
TCACCTTCTGCCACAACTGTTAAGTTTTCTGAGGCC	1050
CTCCTGTGGGATCTGACTTCAAGGAGACCACAGATG	832
TGGCAACCACACATCCACATCCACTGCCTGCTGAAC	1270
CCTGGGGCCACAAAACTGCCTCCTGCCTGAGGCCAG	856
GGCGCGGTCGGGGTTAACCCGGAGCTGAAGGATCCC	859
CGTGAGCCACCGCGCCCGGCCTCGCCCTTGCTGAAG	965
ACGTACGGGATCTGGGAGGTTTGTTTTGACCACACC	797
AGCGATTGCCTTCTCGGGCCCCTGGGCTGCGGCAGT	644
GCTGCGGGCGCCGGCAATCGAGTGGCTCCCTGGCCA	760
AGCCTCAGGGAACTAGCGTCCCCTAGTGGTAAGAAA	773
GGGGAGGGACCGCAGGGAGGCGAAAGTCCTTGTTTT	920
GAGTCCTCGCCGCAAACCCGAGGAGCAGGGTGTGGA	1140
CCAGCAAAGGGAGCTTGGTCAACCACAGCAGCCTGT	839
TAGCAGGGAGCCGATTCGCCCTATATGCAACCACTT	780
CTAGCAACCGCGGGAAGGGGGCGTGGCCGTAAGCCT	804
TCTTTAGTGTGGTTTTGGTAGGATGGAAAGTAGTTT	1490
GACCTGGGCAGCAAGAGCGGCATGTGGGGCCCCCTG	806
CTGGTTTCAATTCCGGGTGCGGCTTCTGTCATAAAG	886
GGCATTCACTTTCGGTCTGGGGCCTGCGGCGGCGGC	824
